The record followed here is the supplement of paper PMC12423691.

To fix the notation:
B1: STAT1, P42224 (protein)
chain: MSQWYELQQLDSKFLEQVHQLYDDSFPMEIRQYLAQWLEKQDWEHAANDVSFATIRFHDLLSQLDDQYSRFSLENNFLLQHNIRKSKRNLQDNFQEDPIQMSMIIYSCLKEERKILENAQRFNQAQSGNIQSTVMLDKQKELDSKVRNVKDKVMCIEHEIKSLEDLQDEYDFKCKTLQNREHETNGVAKSDQKQEQLLLKKMYLMLDNKRKEVVHKIIELLNVTELTQNALINDELVEWKRRQQSACIGGPPNACLDQLQNWFTIVAESLQQVRQQLKKLEELEQKYTYEHDPITKNKQVLWDRTFSLFQQLIQSSFVVERQPCMPTHPQRPLVLKTGVQFTVKLRLLVKLQELNYNLKVKVLFDKDVNERNTVKGFRKFNILGTHTKVMNMEESTNGSLAAEFRHLQLKEQKNAGTRTNEGPLIVTEELHSLSFETQLCQPGLVIDLETTSLPVVVISNVSQLPSGWASILWYNMLVAEPRNLSFFLTPPCARWAQLSEVLSWQFSSVTKRGLNVDQLNMLGEKLLGPNASPDGLIPWTRFCKENINDKNFPFWLWIESILELIKKHLLPLWNDGCIMGFISKERERALLKDQQPGTFLLRFSESSREGAITFTWVERSQNGGEPDFHAVEPYTKKELSAVTFPDIIRNYKVMAAENIPENPLKYLYPNIDKDHAFGKYYSRPKEAPEPMELDGPKGTGYIKTELISVSEVHPSRLQTTDNLLPMSPEEFDEVSRIVGSVEFDSMMNTV
B2: ZNF280C, Q8ND82 (protein)
chain: MDDDKPFQPKNISKMAELFMECEEEELEPWQKKVEETQDEDDDELIFVGEISSSKPAISNILNRGHSSSSSKGIKSEPHSPGIPEIFRTASQRCRDPPSNPVAASPRFHLVSKSSQSSVTVENASKPDFTKNSQVGSDNSSILLFDSTQESLPPSQDIPAIFREGMKNTSYVLKHPSTSKVNSVTPKKPKTSEDVPQINPSTSLPLIGSPPVTSSQVMLSKGTNTSSPYDAGADYLRACPKCNVQFNLLDPLKYHMKHCCPDMITKFLGVIVKSERPCDEDKTDSETGKLIMLVNEFYYGRHEGVTEKEPKTYTTFKCFSCSKVLKNNIRFMNHMKHHLELEKQNNESWENHTTCQHCYRQYPTPFQLQCHIESTHTPHEFSTICKICELSFETEHILLQHMKDTHKPGEMPYVCQVCQFRSSTFSDVEAHFRAAHENTKNLLCPFCLKVSKMATPYMNHYMKHQKKGVHRCPKCRLQFLTSKEKAEHKAQHRTFIKPKELEGLPPGAKVTIRASLGPLQSKLPTAPFGCAPGTSFLQVTPPTSQNTTARNPRKSNASRSKTSKLHATTSTASKVNTSKPRGRIAKSKAKPSYKQKRQRNRKNKMSLALKNIRCRRGIHKCIECHSKIKDFASHFSIYIHCSFCKYNTNCNKAFVNHMMSSHSNHPGKRFCIFKKHSGTLRGITLVCLKCDFLADSSGLDRMAKHLSQRKTHTCQVIIENVSKSTSTSEPTTGCSLK
B3: NR3C2, P08235 (protein)
chain: METKGYHSLPEGLDMERRWGQVSQAVERSSLGPTERTDENNYMEIVNVSCVSGAIPNNSTQGSSKEKQELLPCLQQDNNRPGILTSDIKTELESKELSATVAESMGLYMDSVRDADYSYEQQNQQGSMSPAKIYQNVEQLVKFYKGNGHRPSTLSCVNTPLRSFMSDSGSSVNGGVMRAVVKSPIMCHEKSPSVCSPLNMTSSVCSPAGINSVSSTTASFGSFPVHSPITQGTPLTCSPNVENRGSRSHSPAHASNVGSPLSSPLSSMKSSISSPPSHCSVKSPVSSPNNVTLRSSVSSPANINNSRCSVSSPSNTNNRSTLSSPAASTVGSICSPVNNAFSYTASGTSAGSSTLRDVVPSPDTQEKGAQEVPFPKTEEVESAISNGVTGQLNIVQYIKPEPDGAFSSSCLGGNSKINSDSSFSVPIKQESTKHSCSGTSFKGNPTVNPFPFMDGSYFSFMDDKDYYSLSGILGPPVPGFDGNCEGSGFPVGIKQEPDDGSYYPEASIPSSAIVGVNSGGQSFHYRIGAQGTISLSRSARDQSFQHLSSFPPVNTLVESWKSHGDLSSRRSDGYPVLEYIPENVSSSTLRSVSTGSSRPSKICLVCGDEASGCHYGVVTCGSCKVFFKRAVEGQHNYLCAGRNDCIIDKIRRKNCPACRLQKCLQAGMNLGARKSKKLGKLKGIHEEQPQQQQPPPPPPPPQSPEEGTTYIAPAKEPSVNTALVPQLSTISRALTPSPVMVLENIEPEIVYAGYDSSKPDTAENLLSTLNRLAGKQMIQVVKWAKVLPGFKNLPLEDQITLIQYSWMCLSSFALSWRSYKHTNSQFLYFAPDLVFNEEKMHQSAMYELCQGMHQISLQFVRLQLTFEEYTIMKVLLLLSTIPKDGLKSQAAFEEMRTNYIKELRKMVTKCPNNSGQSWQRFYQLTKLLDSMHDLVSDLLEFCFYTFRESHALKVEFPAMLVEIISDQLPKVESGNAKPLYFHRK
B4: LGALS9, O00182 (protein)
chain: MAFSGSQAPYLSPAVPFSGTIQGGLQDGLQITVNGTVLSSSGTRFAVNFQTGFSGNDIAFHFNPRFEDGGYVVCNTRQNGSWGPEERKTHMPFQKGMPFDLCFLVQSSDFKVMVNGILFVQYFHRVPFHRVDTISVNGSVQLSYISFQNPRTVPVQPAFSTVPFSQPVCFPPRPRGRRQKPPGVWPANPAPITQTVIHTVQSAPGQMFSTPAIPPMMYPHPAYPMPFITTILGGLYPSKSILLSGTVLPSAQRFHINLCSGNHIAFHLNPRFDENAVVRNTQIDNSWGSEERSLPRKMPFVRGQSFSVWILCEAHCLKVAVDGQHLFEYYHRLRNLPTINRLEVGGDIQLTHVQT
B5: PAX4, O43316 (protein)
chain: MHQDGISSMNQLGGLFVNGRPLPLDTRQQIVRLAVSGMRPCDISRILKVSNGCVSKILGRYYRTGVLEPKGIGGSKPRLATPPVVARIAQLKGECPALFAWEIQRQLCAEGLCTQDKTPSVSSINRVLRALQEDQGLPCTRLRSPAVLAPAVLTPHSGSETPRGTHPGTGHRNRTIFSPSQAEALEKEFQRGQYPDSVARGKLATATSLPEDTVRVWFSNRRAKWRRQEKLKWEMQLPGASQGLTVPRVAPGIISAQQSPGSVPTAALPALEPLGPSCYQLCWATAPERCLSDTPPKACLKPCWDCGSFLLPVIAPSCVDVAWPCLDASLAHHLIGGAGKATPTHFSHWP
B6: CIB1, Q99828 (protein)
chain: MGGSGSRLSKELLAEYQDLTFLTKQEILLAHRRFCELLPQEQRSVESSLRAQVPFEQILSLPELKANPFKERICRVFSTSPAKDSLSFEDFLDLLSVFSDTATPDIKSHYAFRIFDFDDDGTLNREDLSRLVNCLTGEGEDTRLSASEMKQLIDNILEESDIDRDGTINLSEFQHVISRSPDFASSFKIVL
B7: TRIM22, Q8IYM9 (protein)
chain: MDFSVKVDIEKEVTCPICLELLTEPLSLDCGHSFCQACITAKIKESVIISRGESSCPVCQTRFQPGNLRPNRHLANIVERVKEVKMSPQEGQKRDVCEHHGKKLQIFCKEDGKVICWVCELSQEHQGHQTFRINEVVKECQEKLQVALQRLIKEDQEAEKLEDDIRQERTAWKNYIQIERQKILKGFNEMRVILDNEEQRELQKLEEGEVNVLDNLAAATDQLVQQRQDASTLISDLQRRLRGSSVEMLQDVIDVMKRSESWTLKKPKSVSKKLKSVFRVPDLSGMLQVLKELTDVQYYWVDVMLNPGSATSNVAISVDQRQVKTVRTCTFKNSNPCDFSAFGVFGCQYFSSGKYYWEVDVSGKIAWILGVHSKISSLNKRKSSGFAFDPSVNYSKVYSRYRPQYGYWVIGLQNTCEYNAFEDSSSSDPKVLTLFMAVPPCRIGVFLDYEAGIVSFFNVTNHGALIYKFSGCRFSRPAYPYFNPWNCLVPMTVCPPSS
B8: TRAF2, Q12933 (protein)
chain: MAAASVTPPGSLELLQPGFSKTLLGTKLEAKYLCSACRNVLRRPFQAQCGHRYCSFCLASILSSGPQNCAACVHEGIYEEGISILESSSAFPDNAARREVESLPAVCPSDGCTWKGTLKEYESCHEGRCPLMLTECPACKGLVRLGEKERHLEHECPERSLSCRHCRAPCCGADVKAHHEVCPKFPLTCDGCGKKKIPREKFQDHVKTCGKCRVPCRFHAIGCLETVEGEKQQEHEVQWLREHLAMLLSSVLEAKPLLGDQSHAGSELLQRCESLEKKTATFENIVCVLNREVERVAMTAEACSRQHRLDQDKIEALSSKVQQLERSIGLKDLAMADLEQKVLEMEASTYDGVFIWKISDFARKRQEAVAGRIPAIFSPAFYTSRYGYKMCLRIYLNGDGTGRGTHLSLFFVVMKGPNDALLRWPFNQKVTLMLLDQNNREHVIDAFRPDVTSSSFQRPVNDMNIASGCPLFCPVSKMEAKNSYVRDDAIFIKAIVDLTGL
B9: CSRNP1, Q96S65 (protein)
chain: MTGLLKRKFDQLDEDNSSVSSSSSSSGCQSRSCSPSSSVSRAWDSEEEGPWDQMPLPDRDFCGPRSFTPLSILKRARRERPGRVAFDGITVFYFPRCQGFTSVPSRGGCTLGMALRHSACRRFSLAEFAQEQARARHEKLRQRLKEEKLEMLQWKLSAAGVPQAEAGLPPVVDAIDDASVEEDLAVAVAGGRLEEVSFLQPYPARRRRALLRASGVRRIDREEKRELQALRQSREDCGCHCDRICDPETCSCSLAGIKCQMDHTAFPCGCCREGCENPMGRVEFNQARVQTHFIHTLTRLQLEQEAESFRELEAPAQGSPPSPGEEALVPTFPLAKPPMNNELGDNSCSSDMTDSSTASSSASGTSEAPDCPTHPGLPGPGFQPGVDDDSLARILSFSDSDFGGEEEEEEEGSVGNLDNLSCFHPADIFGTSDPGGLASWTHSYSGCSFTSGVLDENANLDASCFLNGGLEGSREGSLPGTSVPPSMDAGRSSSVDLSLSSCDSFELLQALPDYSLGPHYTSQKVSDSLDNIEAPHFPLPGLSPPGDASSCFLESLMGFSEPAAEALDPFIDSQFEDTVPASLMEPVPV

This is one part of the list. Binding of human transcription factors and regulators to the viral nucleoprotein by AlphaScreen, crude cell-free proteins, amounts not normalised, one pass. Fold of the Venus control; higher = more signal. No active / inactive call. Single-pass screen; sequences are the whole Swiss-Prot entries looked up by name.

This assay concerns the target nucleoprotein N of Crimean-Congo hemorrhagic fever virus. In words: AlphaScreen luminescence signal relative to Venus negative control (fold); higher = stronger binding to CCHFV N. The procedure: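 AlphaScreen binding of cell-free made, FLAG-GST-tagged human transcription factors and regulators (crude translation products) to biotinylated N protein; signal as fold of the FLAG-GST-Venus control. One pass.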
For orientation: Bead proximity is the source of the signal in Alpha formats.
In the case of B1, the AlphaScreen luminescence signal was determined as 2.

B2: the AlphaScreen luminescence signal was 5.02. In the case of B3 it was 2.19.

Molecule B4 yielded an AlphaScreen luminescence signal of 1.58. In the case of B5 it was 2.56. In the case of B6 it was 1.21; in that of B7, 2.09; in that of B8, 1.67. In the case of B9 it was 4.84.
